Test results taken from paper PMC12136788.
The list shows a part of the results.

T1: UNK ZnF1-6 (called full-length) (human, UniProt Q9C0B0 30-357)
T1 sequence: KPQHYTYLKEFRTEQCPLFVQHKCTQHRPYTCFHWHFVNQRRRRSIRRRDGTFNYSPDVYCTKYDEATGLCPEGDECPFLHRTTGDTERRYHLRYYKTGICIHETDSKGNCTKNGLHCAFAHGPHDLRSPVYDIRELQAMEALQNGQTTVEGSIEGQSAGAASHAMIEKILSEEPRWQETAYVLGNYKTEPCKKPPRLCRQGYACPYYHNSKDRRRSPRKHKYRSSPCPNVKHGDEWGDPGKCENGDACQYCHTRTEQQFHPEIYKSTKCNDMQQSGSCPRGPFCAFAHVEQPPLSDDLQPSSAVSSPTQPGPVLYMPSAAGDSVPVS

B1: chr13:106491261:106491362:-|3pUTR|ENSG00000125266|msi1|FALSE|unique (ssRNA)
RNA: GGGAGUUCUACAGUCCGACGAUCACAAUAAUGAGAGCAAAUGCAAAAAUAACCAAGUCCUCCGAAGGCAUCUCACGGAACCGUAGACUAGGAAGUACGAGCCCCACAGAGCAGGAAGCCGAUGUGACUGCAUCAUAUAUUUAACAACAGAGGAUUGAGCAUCA
B2: chr4:56809860:56810169:-|three_prime_utr|ENSG00000128040|control|control|control (ssRNA)
RNA: GGGAGUUCUACAGUCCGACGAUCCCCUGCUGAUGGAGCAGUUUACAGAAAAGAAGAUGGAGAGACCACCUUCACUGGCAGACUAGAUAAAUUGCAUUUCCCCUUUUUCUCUUUUCCUGUGUUUCUUUACAUGAGAUUUGUUAACAACAGAGGAUUGAGCAUCA
B3: ENSG00000143401:stop:overlap|stop_codon|ENSG00000143401|stop_codon|NA|stop_codon (ssRNA)
RNA: GGGAGUUCUACAGUCCGACGAUCGUCUUCGAGGGGAGAAGAGGAAACGAGAUGCUGAAGACGAUGGAGAGGAAGAAGAUGACUAGAUCAUUCUAAGACCAGAUUCUCUAAUGUUUCUGGGUGUGCAAUAGAGUGAUCACAUCUCAACAGAGGAUUGAGCAUCA
B4: chr11:613205:613595:-|three_prime_utr|ENSG00000185507|control|control|control (ssRNA)
RNA: GGGAGUUCUACAGUCCGACGAUCCUGCACGUUCCUAUACGGCCCCCCAGACCCAGCUGUCCGGGCCACAGACCCCCAGCAGGUAGCAUUCCCCAGCCCUGCCGAGCUCCCGGACCAGAAGCAGCUGCGCUACACGGAGGAACUCAACAGAGGAUUGAGCAUCA
B5: chr3:120395571:120395798:-|3pUTR|ENSG00000163430|msi1|total|mutant (ssRNA)
RNA: GGGAGUUCUACAGUCCGACGAUCUGGUUCUGAUCAUUGGUCCAGAGGGGAGACCGGUUCCUGUGAUUUUUCCUUCUUCUCUACCGAAUAAAUGAAAUCUUGUUACCCGAACAAGAAAUGUCAGAUGGCCAAAAACAAGAUGACCAACAGAGGAUUGAGCAUCA
B6: chr16:88813726:88813828:-|3pUTR|ENSG00000141012|unk|FALSE|unique (ssRNA)
RNA: GGGAGUUCUACAGUCCGACGAUCUCCCUGGACGCUAAUUAUGAGGGAGGCGUGUAGCUUCUUAUCAUUGUAACUAUGUUAUUUAGAAAUAAAACGGGAGGCAGGUUUGCCUAAUUCCCAGCUUGAUUUUUCUCUUGGCUGAGUCAACAGAGGAUUGAGCAUCA
B7: chr5:122065063:122065164:-|3pUTR|ENSG00000113083|msi1|FALSE|unique (ssRNA)
RNA: GGGAGUUCUACAGUCCGACGAUCUCAACUGGCGGAUAUAGCGGUACAUAUGAUCCUUAGCCACCAGGGCACAAGCUUACCAGUAGACAAUACAGACAGAGCUUUUGUUGAGCUGUAACUGAGCUAUGGAAUAGCUUCUUUGAUCAACAGAGGAUUGAGCAUCA
B8: chr6:21593967:21594078:+|5pUTR|ENSG00000124766|unk|FALSE|bound_elsewhere (ssRNA)
RNA: GGGAGUUCUACAGUCCGACGAUCUUAGUGCCGAUUCCGCCCACAGAGAGUCCUGGAGCCACAGUCUUUUUUGCUUUGCAUUGUAGGAGAGGGACUAAGUGCUAGAGACUAUGUCGCUUUCCUGAGCUACCGAGAGCGCUCGUGCAACAGAGGAUUGAGCAUCA
B9: chr10:16593140:16593241:-|3pUTR|ENSG00000148484|unk|total|mutant (ssRNA)
RNA: GGGAGUUCUACAGUCCGACGAUCUUAUUUUUCUUUUCACUCUCUUUCUAAUGCUUCCCACCUUACCUUUCCGAUUCUUUUGCCCGGUGGGAGAUUGUUAUAAGGUCUUUAAACCAUUUCCAUUUGUUUCUUUAACAUUACCAACAACAGAGGAUUGAGCAUCA
B10: chr4:175634378:175634624:-|3pUTR|ENSG00000150625|msi1|total|mutant (ssRNA)
RNA: GGGAGUUCUACAGUCCGACGAUCUUUCUUAUGUUUUGAAAAGAAAACCGCUUUUUAUACUUUUCCGUUUUGAUUUCGGUAACCCGUUUAACUACAGGUAACCUUCAAAGGGACCAUUGUACAUUAUGAACAACCGACCGAGAUCAACAGAGGAUUGAGCAUCA
B11: chr2:85327303:85327429:-|CDS|ENSG00000152291|msi1|FALSE|bound_elsewhere (ssRNA)
RNA: GGGAGUUCUACAGUCCGACGAUCACCCAAAAAGGCAGCACUAGCAAGUCGGGUUCGGAGGCGCAGACCACAAAAGACAGCACUAGUAAGUCGCAUCCGGAGCUGCAGACUCCAAAAGACAGCACUGGCAAAUCGGGUGCGGAGCAACAGAGGAUUGAGCAUCA
B12: chr10:30313878:30313980:-|CDS|ENSG00000107951|unk|FALSE|unique (ssRNA)
RNA: GGGAGUUCUACAGUCCGACGAUCUGUUUUUAUAUUUAAGCCCUUCAUGUACUUACUCAUUUUUUCUUCUGUGUAAUAAUCUAUAGGGAAGGGAGCAAAACAAACCUGAUUCUUCUCCUCUGUACAUUCAGAAUCCAUUUGAAACAACAGAGGAUUGAGCAUCA
B13: chr1:77949188:77949289:-|CDS|ENSG00000162613|unk|total|mutant (ssRNA)
RNA: GGGAGUUCUACAGUCCGACGAUCUUCAAAGGUCAGGCAGUUCCUGCUCCGACUGGGGCUCCUCCAGGUGGUCAGCCAGAUUACCGUGCAGCCUGGGCUGAGUAUUACCGACAACAAGCAGCCUAUUAUGCCCAGACAAGUCCCCAACAGAGGAUUGAGCAUCA
B14: chr10:113876644:113876745:+|CDS|ENSG00000196865|msi1|FALSE|bound_elsewhere (ssRNA)
RNA: GGGAGUUCUACAGUCCGACGAUCGGUUAAUGAUGCAGAUGCCAGCCUUUGGCAAGAACUAGAAGUUUCCUGCUGGCCAACUCUAGUCAUACUUGGACCUCGUGGAAACAUGUUGUUUUCUUUGAUUGGAGAGGGACACAAAGACAACAGAGGAUUGAGCAUCA

biological target: T1, UNK ZnF1-6 (called full-length); experiment: nsRBNS (natural sequence RNA bind-n-seq); RBNS binding buffer (assumed for nsRBNS): 25 mM Tris pH 7.5, 150 mM KCl, 3 mM MgCl2, 0.01% Triton X-100, 500 ug/ml BSA, 20 U/ml SUPERase-In, 4 C; UNK is unkempt and MSI1 is Musashi-1; names of the RNAs are library labels; protein concentration not given here; high values mean tight binding

First: B1
Second: B2
The binding signal of the first is higher: 0.871 enrichment R for the first, 0.66 enrichment R for the second.

First: B3
Second: B4
The binding signal of the first is lower: 0.754 enrichment R for the first, 1 enrichment R for the second.

First: B5
Second: B6
The binding signal of the first is lower: 0.507 enrichment R for the first, 1.75 enrichment R for the second.

Going from B7 to B8, the binding signal rises from 0.535 enrichment R to 0.815 enrichment R.

First: B9
Second: B10
The binding signal of the first is higher: 0.873 enrichment R for the first, 0.196 enrichment R for the second.

Going from B11 to B12, the binding signal falls from 1.03 enrichment R to 0.602 enrichment R.

First: B13
Second: B14
The binding signal of the first is higher: 0.648 enrichment R for the first, 0.602 enrichment R for the second.
